# Experimental data reported in the supplement of paper PMC4166925.
# ± gives the standard deviation of the averaged measurements. Whole data set: some 33,000 sequences, median “E-score (dimensionless, -0.5 to 0.5)” near -0.046, cut for the highest 2% near 0.36. Some of the results follow.
# Tested on: T1, SpTbr T-box DNA-binding domain (GST fusion)
# T1 sequence: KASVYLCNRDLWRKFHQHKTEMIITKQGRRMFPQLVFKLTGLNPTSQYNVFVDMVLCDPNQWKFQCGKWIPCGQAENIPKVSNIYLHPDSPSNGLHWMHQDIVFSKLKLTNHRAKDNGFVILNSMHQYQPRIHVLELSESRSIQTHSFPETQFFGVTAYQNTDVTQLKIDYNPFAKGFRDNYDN
# Assay: PBM E-score of 8-mer (E-score (dimensionless, -0.5 to 0.5)); Tbr is Tbrain of the sea star Patiria miniata (Pm) or the sea urchin Strongylocentrotus purpuratus (Sp); higher = stronger binding preference; most listed sequences are background and not binding sites
# Conditions: the construct has about 5 more residues each side
# Experimental: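 Universal protein-binding microarray (Agilent AMADID 016060, 60-bp probes with a 35-bp variable region) incubated with 200 nM GST-fused Strongylocentrotus purpuratus Tbr T-box DNA-binding domain (residues 362-554) in PBS pH 7.5. Scored for every ungapped 8-mer (given with its reverse complement) as E-score (range -0.5 to 0.5; >0.45 counts as bound) and Z-score of median probe intensity. Two replicate arrays (datasets 1 and 2).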
# 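Further: protein at 200 nM in PBS on universal double-stranded arrays.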
row,Sequence,PBM E-score of 8-mer
1,AGTCAGAC,-0.169 ± 0.017
2,GAAAATGC,-0.24 ± 0.011
3,AGCCGATC,-0.0387 ± 0.098
4,CAGATACC,-0.21 ± 0.033
5,CCTATCAG,-0.0272 ± 0.0079
6,ATCAACGG,-0.0876 ± 0.0074
7,TCTAAGAA,-0.228 ± 0.022
8,ACAATTAC,0.0614 ± 0.028
9,AGACCGCG,0.153 ± 0.032
10,ACTCGTAG,-0.0301 ± 0.03
11,GCCAGCGC,0.166 ± 0.055
12,AACCCCTA,-0.196 ± 0.0075
13,AGAGATAG,-0.0944 ± 0.028
14,GCCGGGCA,-0.161 ± 0.044
15,ATACTTGA,-0.107 ± 0.015
16,ACTTTGGG,-0.136 ± 0.01
17,AAGGTACG,-0.0434 ± 0.066
18,CAGACTGC,0.0403 ± 0.0089
19,GTGAATGA,0.177 ± 0.028
20,CATACACA,0.0213 ± 0.017
21,AATTAAAA,-0.179 ± 0.0028
22,ATTCCCGA,-0.13 ± 0.027

row,Sequence,PBM E-score of 8-mer
1,ACGTTTAC,0.0397 ± 0.056
2,TGTTTTAA,-0.0468 ± 0.011
3,CGAATGGA,-0.133 ± 0.037
4,AATGAATG,-0.0644 ± 0.022
5,AGACTCAA,-0.232 ± 0.065
6,CTAAAACA,0.103 ± 0.021
7,CCTCGGTC,-0.0562 ± 0.039
8,CATTAGAG,-0.108 ± 0.042
9,CTTAGAAC,-0.0856 ± 0.044
10,CATCCGGA,-0.317 ± 0.011
11,ACCCACCA,-0.134 ± 0.013
12,ATGTCGAA,-0.0194 ± 0.026
13,GGGGCGGA,-0.405 ± 0.0052
14,TACACTCA,0.137 ± 0.013
15,AGTAGTCC,-0.153 ± 0.095
16,CTCTAGTA,-0.225 ± 0.0014
17,AATTCTTC,-0.131 ± 0.05
18,ACCACGAT,0.0598 ± 0.0037
19,GCTCGTGA,0.227 ± 0.015
20,CTCTAACA,0.199 ± 0.018
21,AAGTGGCG,0.362 ± 0.0062
22,CATTCTGG,-0.12 ± 0.017

row,Sequence,PBM E-score of 8-mer
1,CTGAAGGA,-0.28 ± 0.03
2,CATTACAC,0.243 ± 0.033
3,GGTTCTAA,-0.119 ± 0.057
4,CGATATGC,0.014 ± 0.0068
5,CCTCTTTC,-0.0462 ± 0.035
6,GTCCACCA,-0.164 ± 0.053
7,CAGTTTGG,0.047 ± 0.035
8,GCGTGAGC,0.286 ± 0.028
9,AAATGCTG,-0.18 ± 0.0037
10,AGCGATGG,0.0111 ± 0.057
11,CTGGCCGC,-0.136 ± 0.07
12,CTCAGTAA,-0.118 ± 0.042
13,GAATAAGA,-0.0605 ± 0.062
14,CTTGGTGA,0.0436 ± 0.052
15,AATTAAGC,-0.157 ± 0.041
16,CCTGAGTA,-0.132 ± 0.056
17,CCGGAAGG,-0.208 ± 0.045
18,AACTATGC,0.00206 ± 0.056
19,CTTTAACC,-0.285 ± 0.062
20,ACGTTGAG,0.0145 ± 0.014
21,AAGCCAAA,-0.1689 ± 0.00031
22,CATAGCCC,-0.0201 ± 0.11

row,Sequence,PBM E-score of 8-mer
1,ATAAACTG,-0.121 ± 0.14
2,TAGAATAA,-0.176 ± 0.13
3,AAATTATA,-0.166 ± 0.028
4,CATCTGGC,-0.176 ± 0.015
5,CATTTCGA,-0.00162 ± 0.0068
6,CTGGAATC,-0.0874 ± 0.041
7,TCATTGAA,-0.129 ± 0.0043
8,GAGCGGGA,0.0728 ± 0.0082
9,CACAGGCC,-0.0537 ± 0.057
10,GGGCACAC,0.11 ± 0.0059
11,ACCCTTTA,0.147 ± 0.041
12,ACGGCAAA,-0.162 ± 0.058
13,AGCCCCCC,-0.197 ± 0.046
14,CAATATCG,0.0294 ± 0.062
15,ATTATAAG,-0.28 ± 0.029
16,GCTTAGGA,-0.107 ± 0.059
17,CCATTACA,-0.061 ± 0.054
18,CGGAGCCA,-0.164 ± 0.067
19,GAGGGCAC,-0.124 ± 0.058
20,CCTATGCG,0.00647 ± 0.019
